# Reference: the supplement of paper PMC3334620
# The full ranking holds about 33,000 sequences; the median of “E-score (-0.5 to 0.5)” is about -0.043, and the highest 2% start at about 0.37. The list shows a part of the results.
# Target: T1, Upc2 (UniProt Q12151)
# T1 sequence: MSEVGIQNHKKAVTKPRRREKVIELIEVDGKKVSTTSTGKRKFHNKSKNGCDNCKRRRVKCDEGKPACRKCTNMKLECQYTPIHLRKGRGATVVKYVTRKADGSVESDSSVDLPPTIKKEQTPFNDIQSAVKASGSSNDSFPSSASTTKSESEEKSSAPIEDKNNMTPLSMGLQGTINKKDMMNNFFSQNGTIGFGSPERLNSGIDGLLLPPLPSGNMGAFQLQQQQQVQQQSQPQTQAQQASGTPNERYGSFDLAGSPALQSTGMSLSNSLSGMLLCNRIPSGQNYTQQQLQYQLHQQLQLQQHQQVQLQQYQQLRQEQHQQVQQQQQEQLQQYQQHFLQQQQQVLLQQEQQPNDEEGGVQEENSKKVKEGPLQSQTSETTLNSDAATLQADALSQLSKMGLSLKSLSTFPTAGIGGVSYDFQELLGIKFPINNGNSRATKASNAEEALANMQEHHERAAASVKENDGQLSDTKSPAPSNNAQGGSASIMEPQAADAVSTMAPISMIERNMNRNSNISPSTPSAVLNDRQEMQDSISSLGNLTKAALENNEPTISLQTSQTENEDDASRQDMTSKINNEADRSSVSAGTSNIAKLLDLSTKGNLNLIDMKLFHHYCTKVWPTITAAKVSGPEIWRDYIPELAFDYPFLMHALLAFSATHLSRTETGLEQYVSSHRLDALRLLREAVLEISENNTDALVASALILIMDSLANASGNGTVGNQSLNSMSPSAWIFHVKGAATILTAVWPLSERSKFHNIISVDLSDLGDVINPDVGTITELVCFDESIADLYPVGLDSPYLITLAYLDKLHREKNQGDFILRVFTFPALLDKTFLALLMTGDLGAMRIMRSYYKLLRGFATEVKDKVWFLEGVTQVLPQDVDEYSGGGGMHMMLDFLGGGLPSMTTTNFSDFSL
# Assay: PBM E-score (8-mer binding enrichment) (E-score (-0.5 to 0.5)); higher = stronger / more preferred TF binding; most listed sequences are background and not binding sites
# Conditions: protein concentration: 200 nM; construct: GST-full length
# Outline: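 Using PURExpress in vitro transcription/translation, GST-tagged yeast transcription factors were made in full-length or DNA-binding-domain form. These were applied at about 100-200 nM to double-stranded universal all-10-mer Agilent arrays, and bound protein was detected with fluorescent anti-GST. Scans were normalised with masliner before the Universal PBM Analysis Suite assigned E-scores to ungapped eight-base words pooled with their reverse complements.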
row,Sequence,PBM E-score
1,CAGGGCAA,-0.199
2,AGTCAACA,-0.0625
3,GATCTCCC,-0.162
4,ACAACAAT,-0.0483
5,ATGCAGTC,-0.0606
6,CACCCGAG,0.109
7,ACTTGGCT,-0.162
8,AGCTATTC,-0.0169
9,GGCGCTCA,-0.109
10,CTAACAGA,-0.187
11,AGCGACTC,0.0463
12,GTGGTGTA,0.0456
13,GCTAGTCA,-0.209
14,GGTGAAAA,0.0377
15,CGCAGAGA,-0.0125
16,AATAAATA,0.267
17,AGCTCCTG,-0.151
18,AATAAAGG,-0.101
19,TGAGTTAA,-0.0543
20,CCCAAGAG,-0.127
21,AGGGCACC,-0.177
22,AGAAGCCG,-0.0774
23,ACCGCCTC,-0.00964
24,AAGGCAAC,-0.077
25,ACGGGACA,0.0973

row,Sequence,PBM E-score
1,CAGATTTA,0.143
2,AAGGTCGC,-0.00748
3,ACAGATCT,-0.131
4,CTATTCAG,-0.0682
5,AGAGGGGC,-0.189
6,AATCACCC,-0.147
7,GCTGTAAC,0.0533
8,AAAGATAC,0.102
9,GTGCATAA,-0.0311
10,GTGGTCCA,-0.0852
11,ACCAAACT,-0.00694
12,ACCATGAA,-0.101
13,AGTTGGCC,-0.233
14,GCTTCCAC,-0.249
15,CGGGCGCC,-0.104
16,ATGCCAGA,-0.0451
17,AATTGAGG,-0.0823
18,AAGATCCT,0.0192
19,GCCCAAGA,-0.187
20,ATATATCA,-0.22
21,CGTTATAC,0.367
22,CCTCGGCC,-0.103
23,ACACCCAC,-0.105
24,CAAATAAG,-0.186
25,AGTAACTA,0.0724

row,Sequence,PBM E-score
1,ATTAGATG,0.182
2,CATTCAAC,-0.0252
3,TAAGGGAA,0.096
4,CATCCGGC,-0.141
5,TTAAAGAA,0.0771
6,ATACTCTA,0.117
7,GTCGCCGA,0.0364
8,AACCCGTC,0.0144
9,GCAGTAAC,-0.0315
10,ACTTCAAC,0.0881
11,GAGACACA,-0.0951
12,AAAAACTA,0.132
13,CTTAGTCC,-0.189
14,TCACTAGA,-0.104
15,TACCGCTA,0.0902
16,TAGCCGAA,0.0124
17,CGTGTGGA,-0.0569
18,AGAACCGC,0.0996
19,AGACACTC,-0.145
20,CAGTAATG,-0.249
21,ACCAATCT,-0.197
22,CTGATGAC,-0.0548
23,GCGGATGA,-0.0327
24,ATACAATA,0.0519
25,ACCCTCGC,0.0921

row,Sequence,PBM E-score
1,CATGAGAG,-0.145
2,AGGCGTTG,0.00901
3,ACACCTCC,-0.218
4,GTGGATCA,-0.163
5,AAAAAACG,0.186
6,AACCTCCC,-0.015
7,CGGTGATA,-0.00433
8,GGAATTTA,0.1
9,AAGCAACT,-0.0514
10,CTATCGCC,-0.141
11,CAGATTCC,-0.195
12,CGCTAATC,0.162
13,CCGTTAGC,0.0385
14,TACCGCGA,0.0931
15,GTGAAAGA,0.0936
16,CTGACCTC,-0.0552
17,AGTAGTTG,-0.137
18,AAATCGTG,0.0785
19,GATGTCCA,-0.119
20,TGAGTGAA,-0.142
21,GTAGGGCA,-0.0187
22,ATCCCTTG,-0.0259
23,CAAGGAAG,-0.273
24,GAGATACC,0.061
25,ATCAGAAG,-0.119

row,Sequence,PBM E-score
1,AGGCAGCG,-0.248
2,CACCTCAC,-0.153
3,CTTGTATC,-0.0734
4,GCCGGACC,-0.102
5,CATTAGTC,-0.139
6,ACCGTTGG,-0.241
7,ACATGAGG,-0.214
8,CTTTTACA,0.031
9,ATCCCACA,-0.135
10,ATTCAGCC,-0.327
11,ACGGGGTC,0.17
12,ACGGCGCA,0.118
13,CGAAAGAC,0.0461
14,GGTGTAAC,0.143
15,GAAAGAGC,0.0534
16,CCCAAACG,0.431
17,ATGCACGG,-0.192
18,CCCACGGC,-0.177
19,GCAGGCCA,-0.174
20,GAATATGA,-0.13
21,AGGGTCTA,-0.279
22,GCACCTCA,-0.171
23,CATCTTAA,0.0649
24,CGAGGTAG,0.0715
25,AACCTGAG,0.0141

row,Sequence,PBM E-score
1,CTCAACGC,-0.147
2,AAATGACG,-0.146
3,CGCTTCAG,-0.0751
4,CCAGGATA,0.0403
5,CATGCGGA,-0.00811
6,AGTGCACC,-0.0403
7,ACACACAG,0.0116
8,ACGTTATA,0.184
9,ATGATGAG,-0.135
10,CAGCACGC,-0.0497
11,CGCACCCA,-0.0122
12,GTCTACTA,-0.0326
13,ACAACGGC,0.0269
14,ACAACCCA,-0.0333
15,AGTGCATC,-0.0515
16,AAGGGAGG,-0.0515
17,AAGGCGGA,-0.14
18,CGTCGACG,-0.133
19,GTAGTTGA,-0.0307
20,CAGTAAAA,0.26
21,ATCGTGAA,0.133
22,ACGGTATC,0.152
23,CCGATAGA,-0.194
24,CCTTTAGA,-0.218
25,CAACAACG,0.184

row,Sequence,PBM E-score
1,CATCATAA,-0.171
2,AACGGCCC,0.259
3,CCAGAAAA,-0.045
4,CTAATGAC,-0.208
5,CCGTGGTA,-0.0935
6,CATGCCCG,0.0485
7,GCAAAATA,0.0486
8,GCAATAGC,-0.202
9,CGCAATGA,0.0774
10,ATCAGTAA,0.0909
11,CTTCTTCA,-0.242
12,GGTCGACC,0.102
13,AGAATAAA,0.0272
14,ACAGAGTG,0.0408
15,AATGATAT,0.0632
16,GTGCCTAA,-0.152
17,GACGGCTA,-0.0205
18,AGGGACAT,-0.0447
19,TAAGAATA,0.117
20,ATGCGTCG,0.0744
21,AACGGCGG,0.288
22,CAACAGGG,-0.22
